Measurements as given in PubChem BioAssay AID1645882 (National Center for Advancing Translational Sciences (NCATS), 2021).
Screen size: about 16,000 compounds; about 120 (0.75%) were called active. Roughly 4% stayed inconclusive and do not appear here. Calls follow the shape of the dose curve; as a rule, active = well fitted inhibition curve with a large enough effect; inconclusive = small, poorly fitted or top-dose-only effect; inactive = no such curve, though single readings can be large or run the other way. The list shows a part of the results. Where a SMILES comes first, the peptide text is derived from it. Bridges are numbered along the chain shown (N, C = ends). [ ]: non-standard residue; d: D form. The star is where a group is joined. ξ: configuration not given here. d(aThr) = C[C@@H](O)[C@@H](N)C(=O)O; ξThr(3R) = C[C@@H](O)C(N)C(=O)O; X8 = CC[C@@H](C)CCCCC(=O)*; dDab = NCC[C@@H](N)C(=O)O

molecular target: Rap guanine nucleotide exchange factor 3 (Homo sapiens) (UniProt O95398); test: Validation qHTS for antagonist of cAMP-regulated guanine nucleotide exchange factor 3 (EPAC1); details: EPAC1 Rap1B-BODIPY-GDP exchange, fluorescence; series mostly up to 150 µM; activity change, negative = inhibition: at the top concentration; also: nearly all actives have a fitted effect of over 75% in size;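 as to activity change, negative = inhibition: plate controls were DMSO for no effect and ATA control for full effect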
Chain of UniProt O95398 (O95398 whole entry, looked up): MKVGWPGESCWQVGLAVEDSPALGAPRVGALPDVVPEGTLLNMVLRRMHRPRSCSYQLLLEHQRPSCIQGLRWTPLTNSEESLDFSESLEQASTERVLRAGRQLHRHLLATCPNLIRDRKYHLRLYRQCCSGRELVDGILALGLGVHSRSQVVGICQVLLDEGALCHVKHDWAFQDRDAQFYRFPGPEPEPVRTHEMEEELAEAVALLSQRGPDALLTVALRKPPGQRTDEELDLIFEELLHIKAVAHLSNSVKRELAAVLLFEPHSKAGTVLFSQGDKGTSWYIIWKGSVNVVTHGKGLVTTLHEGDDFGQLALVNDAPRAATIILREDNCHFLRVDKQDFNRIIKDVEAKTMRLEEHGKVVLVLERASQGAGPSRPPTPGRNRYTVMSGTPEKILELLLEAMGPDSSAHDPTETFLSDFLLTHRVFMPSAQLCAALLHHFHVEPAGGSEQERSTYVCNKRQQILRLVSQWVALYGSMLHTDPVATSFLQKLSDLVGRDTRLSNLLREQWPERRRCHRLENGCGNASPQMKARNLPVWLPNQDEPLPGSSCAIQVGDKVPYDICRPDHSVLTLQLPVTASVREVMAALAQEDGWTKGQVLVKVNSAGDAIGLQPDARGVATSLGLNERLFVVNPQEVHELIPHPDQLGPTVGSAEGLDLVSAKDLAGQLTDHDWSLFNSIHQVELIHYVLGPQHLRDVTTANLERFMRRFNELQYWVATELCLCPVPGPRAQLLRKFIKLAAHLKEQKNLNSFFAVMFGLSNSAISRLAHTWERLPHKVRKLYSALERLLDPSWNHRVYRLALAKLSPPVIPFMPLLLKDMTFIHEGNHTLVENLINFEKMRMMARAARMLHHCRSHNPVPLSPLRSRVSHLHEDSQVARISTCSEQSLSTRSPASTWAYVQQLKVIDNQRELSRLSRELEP
How it was run: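 EPAC1 (100 nM) mixed with 250 nM RAP1B-BODIPY-GDP and 50 uM GDP; compounds in concentration series, 5 min at room temperature. Fluorescence (ex 480/em 540 nm) read every 5 min for 30 min; normalized to ATA control and DMSO.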
Potency is read from the fitted curve at half-maximal effect.

Activity change, negative = inhibition, inactive:
CCCC(O)C(CC)CO (stereo unspecified) 8.68%, CC(CN(C)C)CN1c2ccccc2CCc2ccccc21 (stereo unspecified), NC(=O)c1cc[n+](CC2=C(C(=O)O)N3C(=O)C(NC(=O)C(c4ccccc4)S(=O)(=O)[O-])C3SC2)cc1 (stereo unspecified) -8.16%, Cc1noc(C)c1-c1nccc(Nc2ccc(F)cc2)n1 21.4%, COc1ccc(-n2c(=O)cnc3cnc(N4CCOCC4)nc32)cc1 6.05%, O=C(NCCN1CCOCC1)c1cnn(-c2ncc3c(n2)-c2ccccc2CC3)c1C1CC1 21.4%, COC(=O)[C@H]1[C@H]2C[C@H]3c4[nH]c5ccccc5c4CCN3C[C@H]2CC[C@@H]1O, Cc1ccccc1C(=O)O[C@H]1[C@H](Cc2ccccc2)NS(=O)(=O)[C@H]2CC3C=C[C@]12O3 -19.2%, CN(C)c1nc2cc3c(cc2cc1CN(CC1CCCO1)C(=O)/C=C/c1cccs1)OCO3 (stereo unspecified) 17.2%, Cc1cc2c3c(cccc3n1)C(=O)c1ccccc1-2 13%, COc1cc(=O)n2c(c1C(=O)N(C)Cc1nonc1C)CCN(Cc1c(F)cccc1F)CC2 12.8%, CC(C)NCC(O)COc1cccc2[nH]ccc12 (stereo unspecified), OC(CCN1CCCC1)(c1ccccc1)C1CCCCC1 (stereo unspecified), O=C(c1ccncc1)N1CCC2(CC1)CCN(c1ncccn1)CC2 13.6%, Cn1c(=O)c2c(ncn2CCOC(=O)C(C)(C)Oc2ccc(Cl)cc2)n(C)c1=O 7.66%, CC1COC2=C1C(=O)C(=O)c1c2ccc2c1CCCC2(C)C (stereo unspecified) -18.5%, CC(=O)N1CCC[C@@]2(CCN(Cc3cc(C(F)(F)F)cc(C(F)(F)F)c3)C2)C1 -7.76%, CC(=O)/C(=C\c1ccccc1)CC(=O)O 8.5%, CC[C@@H](C(=O)[C@@H](C)[C@@H](O)[C@H](C)[C@@H]1O[C@@H]([C@@H](CC)C(=O)O)CC[C@@H]1C)[C@H]1O[C@]2(C=C[C@@H](O)[C@]3(CC[C@@](C)([C@H]4CC[C@](O)(CC)[C@H](C)O4)O3)O2)[C@H](C)C[C@@H]1C -138%, Cn1nnc2c(C(N)=O)ncn2c1=O 19.7%, Cc1cccc(CN2C[C@H](Sc3ccccn3)C[C@H]2C(=O)Nc2ccc3sc(C)nc3c2)c1 -2.16%, CCOC(=O)C(C)Oc1cccc2c(=O)n(CC(=O)Nc3ccc4c(c3)OCCO4)ccc12 (stereo unspecified) 5.48% [at 75.8 µM], O=P(O)(O)C(O)c1ccc2ccccc2c1 (stereo unspecified) 13.9%, CC(C)(C)CC(C)(C)c1ccc(OCCOCC[N+](C)(C)Cc2ccccc2)cc1 0.655%, CC(C)C[C@@H](CSc1ccccc1)N1CCN(C)CCC1=O -11.2%, Cn1c(SCc2ccccc2)nnc1C1CCCN(Cc2cccc3ncccc23)C1 (stereo unspecified) 13.1%, CC(C)CCCCCCc1ccc(O)cc1 -28.9%, CC1(C)S[C@@H]2[C@H](NC(=O)COc3ccccc3)C(=O)N2C1C(=O)OCc1ccccc1 (stereo partly specified) -10.6%, O=c1c(-c2cc(F)cc(F)c2)nc2cnc(N3CCOCC3)nc2n1C1CC1 21.5%, Nc1ccccc1C(=O)C[C@H](N)C(=O)O 6.77%, CCCCOc1ccc(C(=O)CCN2CCCCC2)cc1, NC(=O)C[C@H](NC(=O)Cc1ccc(O)cc1O)C(=O)O, O=C(O)COc1ccc(C(=O)c2cccs2)c(Cl)c1Cl, COc1cccc(O)c1O 24.5%, COc1ccc(CNC(=O)[C@@H]2CC=C[C@@H]3CCN(Cc4ccc(OC)c(OC)c4)C(=O)[C@@H]32)cc1 -19.3%, c1cncc(CNc2ccnc(-c3ccc4c(c3)OCO4)n2)c1 3.38%, O=c1c(-c2ccc(Cl)cc2)nc2cnc(N3CCOCC3)nc2n1-c1ccccc1 5.69%, COc1ccc(CCn2nnnc2C2(c3ccc(C)cc3)CC2)cc1 13.6% [at 75.8 µM], O=CCCCC=O 15.9%, CC(=O)N1CCC[C@H]1C(=O)NCC1Cc2cc(-c3cccc(OC(F)(F)F)c3)ccc2O1 (stereo partly specified) -8.05%, Nc1nc(N)c2nc(-c3ccccc3)c(N)nc2n1, CC[C@@H](C)CCCCC(=O)N[C@H](CCN)C(=O)N[C@@H](C(=O)N[C@H](CCN)C(=O)N[C@@H]1CCNC(=O)C([C@@H](C)O)NC(=O)[C@@H](CCN)NC(=O)[C@@H](CCN)NC(=O)[C@@H](CC(C)C)NC(=O)[C@@H](Cc2ccccc2)NC(=O)[C@@H](CCN)NC1=O)[C@@H](C)O (stereo partly drawn) (X8-[dDab][d(aThr)][dDab][dDab][dDab][dF][dL][dDab][dDab][ξThr(3R)]; lactam 4-C) 11.2%, c1ccc(Nc2nc(-c3ccc4c(c3)OCO4)nc3ccccc23)cc1 -12.1%, COc1cccc(CNC(=O)c2c(OC)cc(=O)n3c2CCN(C(=O)c2cc(C)ccc2C)CC3)c1 13.2%, COc1cccc(Cn2c(=O)c(-c3cc(F)cc(F)c3)nc3cnc(N4CCNCC4)nc32)c1 -14.8%, Cc1ccccc1-c1cncnc1N1CCNCC1 23.1%, Cc1ccc(C(=O)Cn2c3c(sc2=N)CCCC3)cc1 -11%, CC(C)(C)NC(=O)[C@H]1CC[C@H]2[C@@H]3CC[C@H]4NC(=O)C=C[C@]4(C)[C@H]3CC[C@]12C 15% [at 75.8 µM], N[C@]1(C(=O)O)CCc2cc(P(=O)(O)O)ccc21 8.6%, O=Cc1cccc(C=O)c1 6.44%, CC(C)c1c(C(=O)NCc2ccncc2)cnn1-c1nccc(-c2cccs2)n1 -15.7%, C=CC[N+]1([C@H]2C[C@H]3[C@@H]4CC[C@H]5C[C@H](O)[C@@H](N6CCOCC6)C[C@]5(C)[C@H]4CC[C@]3(C)[C@H]2OC(C)=O)CCCC1 9.47%, C=CC1=C(C)/C(=C/c2[nH]c(Cc3[nH]c(/C=C4\NC(=O)C(C)=C4C=C)c(C)c3CCC(=O)O)c(CCC(=O)O)c2C)NC1=O -0.0385%, O=C(NCCc1nnc2n1CCN(Cc1ccc(F)cc1)CC2)c1ccco1 12.8%, COc1ccc(CN2CCC3(CCC(CNC(=O)c4ccco4)O3)CC2)c(OC)c1C (stereo unspecified) -4.52%, COc1cccc(-c2cncnc2NCCc2c[nH]c3ccc(OC)cc23)c1 11.3%, CCC[C@@H]1C[C@@H](C(=O)N[C@@H]([C@H]2O[C@H](SC)[C@H](O)[C@@H](O)[C@H]2O)[C@@H](C)O)N(C)C1 404%, COc1ccc(C(=O)N2CCC3(CCCN(c4ccccn4)C3)CC2)cc1 4.39%, COc1ccc(CN2CCOc3ccc(CN4CCC(O)(c5cccnc5)CC4)cc3C2)c(C)c1C 3.11%, COc1ccccc1CCNc1ncnc2sc(C(=O)N3CCCCC3)c(C)c12 4.53%, C=C1C(N)CC2CC1C2(C)C (stereo unspecified) 17%, CCCCCCCC(=O)O[C@H](CC(=O)O)C[N+](C)(C)C -14.8%, CN1CCCN=C1/C=C/c1cccs1 22.2%, CC(=O)N1CCN(c2nc3cc(C)ccc3cc2CN(C(=O)c2cccc3ccccc23)C2CC2)CC1 5.19%, C[C@@H](CSc1ccc(Br)cc1)CN1CC[C@H](NC(=O)OCc2ccccc2)CCC1=O 5.37%, COC(=O)c1cc(CNC(=O)c2cccc3ccccc23)cc(NC(=O)c2ccccc2OC)c1 -11%, CO[C@H]1C[C@@H]2CC[C@@H](C)[C@@](O)(O2)C(=O)C(=O)N2CCCC[C@H]2C(=O)O[C@H]([C@H](C)C[C@@H]2CC[C@@H](OC(=O)C(C)(CO)CO)[C@H](OC)C2)CC(=O)[C@H](C)/C=C(\C)[C@@H](O)[C@@H](OC)C(=O)[C@H](C)C[C@H](C)/C=C/C=C/C=C/1C 12.6%, O=C(C[n+]1cccc2cccc(O)c21)c1ccc(Br)cc1 23.7%, O=C(O)CCCCCCCCc1cn(CC2CCCCC2)nn1 -6.5%, C[C@]12CCC(=O)C=C1CCC1C2C(O)C[C@]2(C)C1CC[C@]2(O)C(=O)COC(=O)CCC(=O)O (stereo partly specified) 2.22%, OC[C@H]1NC[C@@H](O)[C@@H](O)[C@H]1O 13.4%, O=C1CCN(CCc2ccccc2)CCN1[C@H](CSc1ccccc1)Cc1ccccc1 -28.5%, Nc1nc2c(nc(Br)n2C2OC(CO)C(O)C2O)c(=O)[nH]1 (stereo unspecified) 1.08%, O=C(Oc1ccccc1)N1CCC2(CC1)CCN(c1ccccc1)CC2 -11.9%, COCC(=O)N1CCC2(CCCN(Cc3nccs3)C2)CC1 0.165%, Cc1ccc2nc(SCC(=O)NCC3Cc4cc(-c5ncccc5C)ccc4O3)[nH]c2c1 (stereo unspecified) 1.43%, CC/C=C\C/C=C\C/C=C\C/C=C\C/C=C\C/C=C\CCC(=O)O, CSCCC(N)C(=O)NC(CC(C)C)C(=O)NC(Cc1ccccc1)C(=O)O (stereo unspecified) 12.7%, COc1ccc(-c2cc3ccccc3c(=O)o2)cc1 11.5%, Cc1cc(CC(=O)O)c(C)n1-c1ccc(Cl)cc1 14.5%, O=C(c1cc(C(F)(F)F)cc(C(F)(F)F)c1)N1CCC2(CC1)CCN(c1ncccn1)CC2 -14.1%, CCn1nc(C)cc1C(=O)NCC1CCC2(CCN(Cc3ccccc3F)CC2)O1 (stereo unspecified) 8.94%, CC(=O)/C=C\C1[C@]2(C)CCCC(C)(C)C2CC[C@@]1(C)O (stereo partly specified) 2.93%, O=C(NCc1cccnc1)[C@@H]1CC=C[C@@H]2CCN(Cc3ccccc3)C(=O)[C@@H]21 4.82%, CN(CCO)C(=O)c1cn(C2CCCN(Cc3cc4ccccc4s3)C2)nn1 (stereo unspecified) 11%, COc1ccc(-c2cc(=O)c3c(OC)c(OC)c(OC)c(OC)c3o2)cc1OC -20.6%, CC(=O)O[C@]1(C(C)=O)CC[C@H]2[C@@H]3CCC4=CC(=O)CC[C@]4(C)[C@@]3(F)[C@@H](O)C[C@@]21C 15.5%, Cc1cccc(CNc2cc(-c3ccccc3C)ncn2)c1 4.7%, CC1(C)O[C@@H]2C[C@@H]3[C@H]4C[C@@H](F)C5=CC(=O)C=C[C@]5(C)[C@@]4(F)[C@@H](O)C[C@]3(C)[C@]2(C(=O)CO)O1 25.2%, O=C(c1csnn1)N1CCC2(CC1)CCN(c1ncccn1)CC2 19.5%

Potency, active:
CC(C)=CCCC1(C)C=Cc2c(O)c3c(c(CC=C(C)C)c2O1)OC12C(=CCCC1C(C)(C)O[C@@]2(C/C=C(\C)C(=O)O)C(=O)O)C3=O (stereo partly specified) 89.1 µM
